Consider nine molecules from the supplement of paper PMC11741623.

B1: PNLIPRP3, Q17RR3 (protein)
chain: MLGIWIVAFLFFGTSRGKEVCYERLGCFKDGLPWTRTFSTELVGLPWSPEKINTRFLLYTIHNPNAYQEISAVNSSTIQASYFGTDKITRINIAGWKTDGKWQRDMCNVLLQLEDINCINLDWINGSREYIHAVNNLRVVGAEVAYFIDVLMKKFEYSPSKVHLIGHSLGAHLAGEAGSRIPGLGRITGLDPAGPFFHNTPKEVRLDPSDANFVDVIHTNAARILFELGVGTIDACGHLDFYPNGGKHMPGCEDLITPLLKFNFNAYKKEMASFFDCNHARSYQFYAESILNPDAFIAYPCRSYTSFKAGNCFFCSKEGCPTMGHFADRFHFKNMKTNGSHYFLNTGSLSPFARWRHKLSVKLSGSEVTQGTVFLRVGGAVRKTGEFAIVSGKLEPGMTYTKLIDADVNVGNITSVQFIWKKHLFEDSQNKLGAEMVINTSGKYGYKSTFCSQDIMGPNILQNLKPC
B2: BBS7, Q8IWZ6 (protein)
chain: MDLILNRMDYLQVGVTSQKTMKLIPASRHRATQKVVIGDHDGVVMCFGMKKGEAAAVFKTLPGPKIARLELGGVINTPQEKIFIAAASEIRGFTKRGKQFLSFETNLTESIKAMHISGSDLFLSASYIYNHYCDCKDQHYYLSGDKINDVICLPVERLSRITPVLACQDRVLRVLQGSDVMYAVEVPGPPTVLALHNGNGGDSGEDLLFGTSDGKLALIQITTSKPVRKWEIQNEKKRGGILCIDSFDIVGDGVKDLLVGRDDGMVEVYSFDNANEPVLRFDQMLSESVTSIQGGCVGKDSYDEIVVSTYSGWVTGLTTEPIHKESGPGEELKINQEMQNKISSLRNELEHLQYKVLQERENYQQSSQSSKAKSAVPSFGINDKFTLNKDDASYSLILEVQTAIDNVLIQSDVPIDLLDVDKNSAVVSFSSCDSESNDNFLLATYRCQADTTRLELKIRSIEGQYGTLQAYVTPRIQPKTCQVRQYHIKPLSLHQRTHFIDHDRPMNTLTLTGQFSFAEVHSWVVFCLPEVPEKPPAGECVTFYFQNTFLDTQLESTYRKGEGVFKSDNISTISILKDVLSKEATKRKINLNISYEINEVSVKHTLKLIHPKLEYQLLLAKKVQLIDALKELQIHEGNTNFLIPEYHCILEEADHLQEEYKKQPAHLERLYGMITDLFIDKFKFKGTNVKTKVPLLLEILDSYDQNALISFFDAA
B3: GDF5OS, Q5U4N7 (protein)
chain: MIQSSQPMSLKLTCSAFRLQRALRFLLGRLPWRVASGARRFRRWLNRYSYTVLSSWPERALISLKNRSRFLVRPNTRNRAFSWTCRAARSKPRPRRSTALPRSQASSSRHSWAEFLKFRKSFQMSNTSQPDPSRPGTERTSSKEAGCRPLGQLDSFSWAARPPPGAAGLAVSEGFFRKIRSSAPSSPSFSRALMSNTYLCFLTTGPRSSRENTQKSFPATSPREPVTSRLRGKAPALSPSRELSFTSAPF
B4: DPP3, Q9NY33 (protein)
chain: MADTQYILPNDIGVSSLDCREAFRLLSPTERLYAYHLSRAAWYGGLAVLLQTSPEAPYIYALLSRLFRAQDPDQLRQHALAEGLTEEEYQAFLVYAAGVYSNMGNYKSFGDTKFVPNLPKEKLERVILGSEAAQQHPEEVRGLWQTCGELMFSLEPRLRHLGLGKEGITTYFSGNCTMEDAKLAQDFLDSQNLSAYNTRLFKEVDGEGKPYYEVRLASVLGSEPSLDSEVTSKLKSYEFRGSPFQVTRGDYAPILQKVVEQLEKAKAYAANSHQGQMLAQYIESFTQGSIEAHKRGSRFWIQDKGPIVESYIGFIESYRDPFGSRGEFEGFVAVVNKAMSAKFERLVASAEQLLKELPWPPTFEKDKFLTPDFTSLDVLTFAGSGIPAGINIPNYDDLRQTEGFKNVSLGNVLAVAYATQREKLTFLEEDDKDLYILWKGPSFDVQVGLHELLGHGSGKLFVQDEKGAFNFDQETVINPETGEQIQSWYRSGETWDSKFSTIASSYEECRAESVGLYLCLHPQVLEIFGFEGADAEDVIYVNWLNMVRAGLLALEFYTPEAFNWRQAHMQARFVILRVLLEAGEGLVTITPTTGSDGRPDARVRLDRSKIRSVGKPALERFLRRLQVLKSTGDVAGGRALYEGYATVTDAPPECFLTLRDTVLLRKESRKLIVQPNTRLEGSDVQLLEYEASAAGLIRSFSERFPEDGPELEEILTQLATADARFWKGPSEAPSGQA
B5: FBXL19-AS1, Q494R0 (protein)
chain: MAEPGGRGDYRKDGRLPSLSRSPLSTTLGTSPACGLEIPPTSGARPDGSCSLPAPVYHLKSRQWKGMGRGYRQRWRLQGRGDCDMGCVVQASGLFPAEMRERTTKKMATSPLDLCAGACWEM
B6: OMG, P23515 (protein)
chain: MEYQILKMSLCLFILLFLTPGILCICPLQCICTERHRHVDCSGRNLSTLPSGLQENIIHLNLSYNHFTDLHNQLTQYTNLRTLDISNNRLESLPAHLPRSLWNMSAANNNIKLLDKSDTAYQWNLKYLDVSKNMLEKVVLIKNTLRSLEVLNLSSNKLWTVPTNMPSKLHIVDLSNNSLTQILPGTLINLTNLTHLYLHNNKFTFIPDQSFDQLFQLQEITLYNNRWSCDHKQNITYLLKWMMETKAHVIGTPCSTQISSLKEHNMYPTPSGFTSSLFTVSGMQTVDTINSLSVVTQPKVTKIPKQYRTKETTFGATLSKDTTFTSTDKAFVPYPEDTSTETINSHEAAAATLTIHLQDGMVTNTSLTSSTKSSPTPMTLSITSGMPNNFSEMPQQSTTLNLWREETTTNVKTPLPSVANAWKVNASFLLLLNVVVMLAV
B7: SBSPON, Q8IVN8 (protein)
chain: MRTLWMALCALSRLWPGAQAGCAEAGRCCPGRDPACFARGWRLDRVYGTCFCDQACRFTGDCCFDYDRACPARPCFVGEWSPWSGCADQCKPTTRVRRRSVQQEPQNGGAPCPPLEERAGCLEYSTPQGQDCGHTYVPAFITTSAFNKERTRQATSPHWSTHTEDAGYCMEFKTESLTPHCALENWPLTRWMQYLREGYTVCVDCQPPAMNSVSLRCSGDGLDSDGNQTLHWQAIGNPRCQGTWKKVRRVDQCSCPAVHSFIFI
B8: IL31, Q6EBC2 (protein)
chain: MASHSGPSTSVLFLFCCLGGWLASHTLPVRLLRPSDDVQKIVEELQSLSKMLLKDVEEEKGVLVSQNYTLPCLSPDAQPPNNIHSPAIRAYLKTIRQLDNKSVIDEIIEHLDKLIFQDAPETNISVPTDTHECKRFILTISQQFSECMDLALKSLTSGAQQATT
B9: TDO2, P48775 (protein)
chain: MSGCPFLGNNFGYTFKKLPVEGSEEDKSQTGVNRASKGGLIYGNYLHLEKVLNAQELQSETKGNKIHDEHLFIITHQAYELWFKQILWELDSVREIFQNGHVRDERNMLKVVSRMHRVSVILKLLVQQFSILETMTALDFNDFREYLSPASGFQSLQFRLLENKIGVLQNMRVPYNRRHYRDNFKGEENELLLKSEQEKTLLELVEAWLERTPGLEPHGFNFWGKLEKNITRGLEEEFIRIQAKEESEEKEEQVAEFQKQKEVLLSLFDEKRHEHLLSKGERRLSYRALQGALMIYFYREEPRFQVPFQLLTSLMDIDSLMTKWRYNHVCMVHRMLGSKAGTGGSSGYHYLRSTVSDRYKVFVDLFNLSTYLIPRHWIPKMNPTIHKFLYTAEYCDSSYFSSDESD

The other results are listed elsewhere or left out. Interaction screen of human proteins with wild-type SARS-CoV-2 proteins by split-DHFR complementation in yeast, 1 µg/mL methotrexate. Value = fitness of the pair (three or more lineages) minus that of the viral protein without a human partner, on a scale set by negative (0) and fused positive (1) controls, mean of up to three cultures; higher = more likely to interact. Active = false discovery rate below 0.05 (one-sided t-test) in at least one culture. Nearly all pairs are not hits, and differences among them are mostly noise (correlation between cultures about 0.3); most hits were seen in one culture only. Human sequences are the Swiss-Prot entries looked up by gene name; the clone may be another isoform. NSP2 values were corrected by the authors for a growth advantage. Listed are human proteins with a hit and a random twelfth of the others.

For one test, the target named is SARS-CoV-2 NSP2. Briefly: yeast fitness gain over the viral ORF with no human partner (scaled fitness); higher = more likely to interact. As for the experimental part:
(§1)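 Split mouse DHFR complementation in pooled diploid yeast: human ORFeome clones carry one fragment and viral ORFs the other; barcoded lineages compete in 1 µg/mL methotrexate and fitness is read by barcode sequencing in up to three cultures.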
Regarding B1, the yeast fitness gain is inactive: -0.315.

As to B4, the yeast fitness gain was inactive: -0.31.

For the next test, the target named is SARS-CoV-2 NSP5. The description is as above. The procedure: as §1
As to B1, the yeast fitness gain was inactive: 0.0558.

In another test the target is SARS-CoV-2 ORF7A. The test is described as above. The procedure:
as §1
Regarding B1, the yeast fitness gain is inactive: 0.15.

The next test concerns the target SARS-CoV-2 ORF8. Described as above. As for the experimental part: as §1
Turning to B1, the yeast fitness gain was inactive: 0.00767.

A further test concerns the target SARS-CoV-2 ORF3B. The description is as above. As for the experimental part: as §1
Turning to B2, the yeast fitness gain is inactive: -0.117.

Consider B3, for which the yeast fitness gain was inactive: -0.167.

For B7, the yeast fitness gain is inactive: 0.00762.

In the case of B8, the yeast fitness gain is inactive: -0.0233.

A further test concerns the target SARS-CoV-2 ORF6. The test is described as above. As for the experimental part: as §1
Consider B2, for which the yeast fitness gain is inactive: -0.191.

Another test deals with SARS-CoV-2 ORF10. The description is as above. As for the experimental part:
as §1
As to B3, the yeast fitness gain is inactive: 0.0899.

Turning to B7, the yeast fitness gain is inactive: -0.0425.

As to B9, the yeast fitness gain is inactive: -0.123.

Another test addresses SARS-CoV-2 NSP6. The description is as above. The procedure: as §1
On to B5, for which the yeast fitness gain is inactive: -0.0342.

For a further test, the target named is SARS-CoV-2 NSP7. The description is as above. The procedure: as §1
Take B6: the yeast fitness gain was inactive: -0.0626.
